# This is one part of the list. The data describe in vitro nicking of single-stranded DNA by Rep domains for 1 h at 37 °C with 3 µM enzyme; only the middle of the 90-letter strands is printed. Values are log2 of uncut reads against the no-enzyme pool; strong cutting gives strongly negative numbers. There is no active / inactive call. Counts are relative to all reads; uncut strands gain when others are lost, and binding without cutting may add a little.
# Tests used:
# Test in all cases: uncleaved DNA left, log2 of reads against the no-enzyme library (log2 ratio); higher = less cleavage (more negative = more Rep cleavage of the k-mer); sequences stand for … in CTCGTCCG…ACCGGAGA
# [1] = test system: T1, Rep nickase domain of Muscovy duck circovirus
# T1 sequence (protein, residues 1-111, tag omitted): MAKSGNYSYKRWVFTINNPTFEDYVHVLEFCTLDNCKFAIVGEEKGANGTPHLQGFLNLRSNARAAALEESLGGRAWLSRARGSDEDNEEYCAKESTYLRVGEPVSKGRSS
# Procedure: (§1)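 A pool of 90-nt single-stranded DNAs with seven random bases just before the constant AC of the nick site (name = the seven bases) was cut by 3 µM recombinant His6-SUMO-tagged Rep nickase domain (300 nM DNA, 50 mM HEPES pH 8.0, 50 mM NaCl, 1 mM MnCl2, 1 h, 37 °C, three replicates). Uncut DNA was amplified and sequenced.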
# [2] = test system: T2, Rep nickase domain of banana bunchy top virus
# T2 sequence (protein, residues 1-94, tag omitted): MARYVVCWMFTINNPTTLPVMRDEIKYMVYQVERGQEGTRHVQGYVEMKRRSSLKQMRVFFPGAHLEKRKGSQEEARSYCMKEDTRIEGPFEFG
# Procedure: as §1
# [3] = test system: T3, Rep nickase domain of cabbage leaf curl virus
# T3 sequence (protein, residues 1-116, tag omitted): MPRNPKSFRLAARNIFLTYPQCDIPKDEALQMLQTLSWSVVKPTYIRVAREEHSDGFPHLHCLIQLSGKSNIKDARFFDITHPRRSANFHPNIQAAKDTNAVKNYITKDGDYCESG
# Procedure: as §1
# [4] = test system: T4, Rep nickase domain of chickpea chlorotic dwarf virus
# T4 sequence (protein, residues 1-124, tag omitted): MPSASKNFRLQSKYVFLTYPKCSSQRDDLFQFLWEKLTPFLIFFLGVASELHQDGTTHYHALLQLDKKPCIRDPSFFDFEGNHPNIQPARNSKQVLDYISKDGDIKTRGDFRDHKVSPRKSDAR
# Procedure: as §1
# [5] = test system: T5, Rep nickase domain of faba bean necrotic yellows virus
# T5 sequence (protein, residues 1-98, tag omitted): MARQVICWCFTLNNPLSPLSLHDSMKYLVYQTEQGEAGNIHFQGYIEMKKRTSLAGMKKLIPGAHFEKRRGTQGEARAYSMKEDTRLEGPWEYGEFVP
# Procedure: as §1
# [6] = test system: T6, Rep nickase domain of maize striate mosaic virus
# T6 sequence (protein, residues 1-117, tag omitted): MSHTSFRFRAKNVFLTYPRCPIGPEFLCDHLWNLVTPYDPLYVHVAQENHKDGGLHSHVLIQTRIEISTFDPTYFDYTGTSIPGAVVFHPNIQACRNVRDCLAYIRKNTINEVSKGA
# Procedure: as §1
# [7] = test system: T7, Rep nickase domain of porcine circovirus 2
# T7 sequence (protein, residues 2-116, tag omitted): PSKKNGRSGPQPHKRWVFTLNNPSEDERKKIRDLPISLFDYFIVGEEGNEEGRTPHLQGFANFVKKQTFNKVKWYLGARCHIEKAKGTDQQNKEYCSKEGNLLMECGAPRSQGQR
# Procedure: as §1
# [8] = test system: T8, Rep nickase domain of tomato yellow leaf curl virus
# T8 sequence (protein, residues 1-136, tag omitted): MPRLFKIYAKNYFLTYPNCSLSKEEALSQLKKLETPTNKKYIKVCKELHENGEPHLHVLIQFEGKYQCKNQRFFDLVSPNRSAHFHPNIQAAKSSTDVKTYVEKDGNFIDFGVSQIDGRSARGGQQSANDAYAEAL
# Procedure: as §1
# [9] = test system: T9, Rep nickase domain of wheat dwarf virus
# T9 sequence (protein, residues 1-137, tag omitted): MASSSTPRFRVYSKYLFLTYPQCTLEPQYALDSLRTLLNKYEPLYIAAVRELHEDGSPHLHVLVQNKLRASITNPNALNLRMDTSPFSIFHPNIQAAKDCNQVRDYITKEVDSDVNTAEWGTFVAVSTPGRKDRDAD
# Procedure: as §1
Sequence,uncleaved DNA left (log2) [1],uncleaved DNA left (log2) [2],uncleaved DNA left (log2) [3],uncleaved DNA left (log2) [4],uncleaved DNA left (log2) [5],uncleaved DNA left (log2) [6],uncleaved DNA left (log2) [7],uncleaved DNA left (log2) [8],uncleaved DNA left (log2) [9]
TCCAACA,-0.011,-0.00205,-0.0759,-2.12,-0.0722,-0.35,-0.156,-0.102,-0.000262
ACACCGA,-0.0606,-0.166,-0.331,-0.14,0.0472,-0.883,0.116,-0.204,-0.0388
CCTGACC,-0.0232,0.0026,-0.141,0.448,-0.00462,0.79,0.00847,-0.206,-0.11
AGTCTCA,0.0633,-0.0122,0.14,-0.264,0.0174,0.155,-1.13,0.0518,0.0706
CTCTATA,0.0597,-0.0153,-0.191,-1.76,0.0888,-0.676,-0.273,-0.213,0.08
TCAGAGA,0.0707,0.079,0.458,0.809,0.0271,0.105,0.137,0.0466,0.137
CGTGACT,-0.00771,0.0209,0.186,0.492,0.064,1.5,-0.117,0.103,0.117
GACCTCT,0.111,0.0526,0.188,-0.649,-0.0423,0.519,0.0587,-0.0221,0.2
CTTCGGA,0.263,0.104,0.249,0.457,0.194,-0.14,0.212,0.0341,0.0527
CCAAGGG,-0.159,0.0347,0.0117,0.561,-0.00243,-0.106,0.121,-0.0462,0.0469
GTGGAAG,0.046,0.0754,0.312,0.638,-0.00635,0.314,0.165,0.159,0.114
CAGGGAT,0.0103,-0.0367,0.161,1.49,-0.146,1.8,0.0455,-0.223,-0.0393
GACGCAA,0.107,0.187,0.111,0.463,0.0707,0.597,0.0318,0.082,0.0443
CCGGCCC,0.0435,-0.089,0.133,0.135,-0.061,0.265,0.0413,-0.202,-0.201
CAATGAA,-0.0151,-0.103,-0.383,-0.892,0.0822,-0.911,-0.942,0.0708,-0.0693
GAGGTTC,0.0821,0.0577,0.22,0.421,-0.0433,1.49,-0.00392,0.0677,0.0748

Sequence,uncleaved DNA left (log2) [1],uncleaved DNA left (log2) [2],uncleaved DNA left (log2) [3],uncleaved DNA left (log2) [4],uncleaved DNA left (log2) [5],uncleaved DNA left (log2) [6],uncleaved DNA left (log2) [7],uncleaved DNA left (log2) [8],uncleaved DNA left (log2) [9]
GCCAAAA,-0.0503,0.0309,0.182,0.487,0.0147,0.0877,0.149,-0.0553,0.0294
ACCAAGC,-0.0416,-0.0211,-0.256,0.0642,-0.0116,-0.903,0.102,-0.0767,-0.119
CCTAGCC,0.0146,-0.0393,-0.212,-0.465,-0.00885,-1.09,0.000727,-0.131,-0.0724
TTTCGTG,-0.0849,-0.0539,-0.623,-0.851,-0.0114,-1.12,0.16,-0.0561,-0.11
AAGCGAT,0.0599,-0.0419,0.167,1.56,-0.056,1.84,0.136,-0.158,0.0226
CACCAAC,-0.0168,0.0539,-0.288,-1.49,-0.114,-0.757,-0.168,-0.139,0.0304
CCCCGCG,-0.0571,0.0132,-0.632,0.0681,-0.0371,-0.543,0.097,-0.0275,-0.163
GACGTTT,0.00438,-0.0265,0.227,-0.899,0.0612,1.24,-0.292,-0.088,-0.0487
GGGCCAC,0.0334,0.122,0.768,1.83,-0.107,2.13,0.0798,-0.169,0.0349
TTCACTG,-0.0983,-0.134,-0.106,0.0999,-0.105,0.958,-0.0895,-0.233,-0.126
GCGGCAT,0.021,0.0891,0.782,1.86,-0.128,2.21,0.16,0.00103,0.0976
CTGGTAC,0.0973,0.0474,0.113,0.0274,0.0471,0.0617,-0.105,0.0971,0.0253
TCGGCGG,0.203,0.041,0.26,0.594,0.0318,0.883,0.199,-0.027,-0.0969
GCCGTAG,-0.0197,0.128,-0.109,0.0481,0.00828,-0.502,0.127,0.0582,-0.0654
AGAAGAA,0.148,0.0612,0.162,0.316,0.0763,-0.393,0.0849,0.00265,0.0482

# Source: the supplement of paper PMC7826260
